The source gives no read counts; variants with many changes may rest on few reads.
B1: LINE1-full (parent)
chain: UACGUAGGUGGUUUUCCCCUGAUAGUGCUAAGGGGGCCUGGAAGUUUGGACUGGGCAGAGCUCAACACAGCGUGGCAAAGUGGCUGUGGCUAGACUGCCUCUCUGGAUUCCUCGUCACUCAGCAGGGCAUCUCUGAGAGAAAUGCC

Variants of: B1
Test: self-cleavage, relative activity (ratio to wild type); higher = more cleavage; in vitro, sequencing; the parent is a self-cleaving ribozyme

| Variant | self-cleavage |
| --- | --- |
| CACGUAGGUGGUUUUCCCCUGAUGGUGCUAAGGGGGCCUGGAAGUUUGGACUGGGCAGAGCUCAACACAGCGUGGCAAAGUGGCUGUGGCUAGACUGCCCCUCUGGAUUCCUCGUCACUCAGCAGGGCAUCUCUGAGAGAAAUGCC | 0.2 |
| CACGUAGGUGGUUUUCCCCUGAUAGUGCUGAGGGGGCCUGGAAGUUAGGACUGGGCAGAGCUCGACACAGCGUGGCAAAGUGGCUGUGGCUAGACUGCCCCUCUGGAUUCCUCGUCACUCUGCAGGGCAUCUCUGAGAGAAAUGCC | 0.84 |
| CACGUAGGUGGUUUUCCCCUGAUAGUGCUGAGGGGGCCUGGAAGUUUGGACUGGGCAGAGCUCAACACAGCGUGGCAAAGUGGCUGUGGCUAGACAGCCUCUCUGGAUUCCUCGUCACUCAGCAGGGCAUCUCUGAGAGAAAUGCC | 0.27 |
| CACGUAGGUGGUUUUCCCCUGAUAGUGCUUAGGGGGCCUGGAAGUUUGGACUGGGCAGAGCACAACACAGCGUGGCAAAGUGGCUGUGGCUAGACUGCCUCUCUGGAUUCCUCGUCACUCAGCAGGGCAUCUCUGAGAGAAAUGCC | 0.09 |
| CACGUAGGUGGUUUUCCCCUGAUAGUGCUACAGGGGCCUGGAAGUUUGGACUGGGCAGAGCUCAACACAGCGUGGCAAAGUGGCUGUGGCUAGACUGCCUCUCUGGAUUCCUCGUCACUCAGCAGGGCAUCUCUGAGAGUAAUGCC | 0.71 |
| CACGUAGGUGGUUUUCCCCUGAUAGUGCUAAGGGGGCCUGGGGGUUUGGACUGGGCAGAGCUCAACACAGCGUGGCAAAGUGGCUGUGGCUAGACUGCCUCUCUGGAUUCCUCGUCACUCAGCAGGGCAUCUCUGAGAGAAAUGCC | 0.61 |
| CACGUAGGUGGUUUUCCCCUGAUAGUGCUAAGGGGGCCUGGGAGUUUGGACUGGGCAGAGCUCAAAACAGCAUGGCAAAGUGGCUGUGGCUAGACUGCCUCUCCGGAUUCCUCGUCACUCAGCGGGGCAUCUCUGAGAGAAAUGCC | 0.04 |
| CACGUAGGUGGUUUUCCCCUGAUAGUGCUAAGGGGGCCUGGGAGUUUGGACUGGGCAGAGCUCAACACAGCGUGGCAAAGUGGCUGUGGCUAGACUGCCUCUCUGGAUUCCCCGUCACUCAGCAGGGCAUCUCUGAGAGAAAUGCC | 1.11 |
| CACGUAGGUGGUUUUCCCCUGAUAGUGCUAAGGGGGCCUGGUAGUUUGGACUGGGCAGAGCUCAACACAGCGUGGCAAAGUGGCUGUGGCUAGACUGCCUCUCUGGAUUCCUCGUCACUCAGCAGGGCAUCUCUGAGAGGAAUGCC | 0.24 |
| CACGUAGGUGGUUUUCCCCUGAUAGUGCUAAGGGGGCCUGGACGUUUGGACAGGGCAGAGCUCAACACAGCGUGGCAAAGUGGCUGUGGCUAGACUGCCUCUCUGGAUUCCUCGUCACUCAGCAGGGCAUCGCUGAGAGAAAUGCC | 1.22 |
| CACGUAGGUGGUUUUCCCCUGAUAGUGCUAAGGGGGCCUGGAGGUUUGGACUGGGCAGAGCUCAACAUAGCGUGGCAAAGUGGCUGUGGCUAGACUGCCUCUCUGGAUUCCUCGUCACUCAGCAGGGCAUCUCUGAGAGAAAUGCC | 0.09 |
| CACGUAGGUGGUUUUCCCCUGAUAGUGCUAAGGGGGCCUGGAGGUUCGGACUGGGCAGUGCUCAACACAGCGUGGCAAAGUGGCUGUGGCUAGACUGCCUCUCUGGAUUCCUCGUCACUCAGCAGGGCGUCUCUGAGAGAAAUGCC | 0.84 |
| CACGUAGGUGGUUUUCCCCUGAUAGUGCUAAGGGGGCCUGGAGGUUUGGACGGGGCAGAGCUCAACACAGCGUGGCAAAGAGGCCGUGGCUAGACUGCCUCUCUGGAUUCCUCGUCACUCAGCAGGGCAUCUCUGAGAGAAAUGCC | 0 |
| CACGUAGGUGGUUUUCCCCUGAUAGUGCUAAGGGGGCCUGGAUGUUUGGACUGGGCUGAGCUCAACACAGCGUGGCAAAGUGGCUGUGGCUAGACUGCCUCUCUGGAUUCCUCGUCACUCAGCAGGGCAUCUCUGAGAGAAAUACC | 0.12 |
| CACGUAGGUGGUUUUCCCCUGAUAGUGCUAAGGGGGCCUGGAUGUUUGGACCGGGCAGAGCUCAACACAGCGUGGCAAAGUGGCUGUGGCUAGACUGCCUCUCUGGAUUCCUCGUCACUCAGCAGGGCAUCUCUGAGAGAAAUGCC | 0.89 |
| CACGUAGGUGGUUUUCCCCUGAUAGUGCUAAGGGGGCCUGGAAGUUUGGACUGGGCGGAGCUCAACACAGCGUGGCAAAGUGGCUGAGGCUAGACUGCCUCUCUGGAUUCCUCGUCACUCAGCAGGGCAUCUCUGAGAGAAAUGCC | 0.06 |
| CACGUAGGUGGUUUUCCCCUGAUAGUGCUAAGGGGGCCUGGAAGUUUGGACUGGGCUGAGCUCAACACAGCGUGGCAAAGUGGCUGUGGCUAGACUGCCUCUCUGGAUUCCUCGUCACUCAGCAGUGCAUCUCUGAGAGAAAUGCU | 0.03 |
| CACGUAGGUGGUUUUCCCCUGAUAGUGCUAAGGGGGCCUGGAAGUUUGGACUGGGCAGAGCUCGACACAGCGUGGCAAAGUGGCUGUGGCUAGACUGCCUCCCUGGAUUCCUCGUCACUCAGCAGGGCAUCUCUGAGAGAAGUGCC | 0.07 |
| CACGUAGGUGGUUUUCCCCUGAUAGUGCUAAGGGGGCCUGGAAGUUUGGACUGGGCAGAGCUCGACACAGCGUGGCAAAGUGGCUGUGGCUAGACUGCCUCUCUGGAUUCCUCGUCACUCAGCAGGGCAUCCCUGAGAGAAAUGCC | 0.25 |
| CACGUAGGUGGUUUUCCCCUGAUAGUGCUAAGGGGGCCUGGAAGUUUGGACUGGGCAGAGCUCAGCACAGCGUGGCAAAGUGGCUGUGGCUAGACUGCCUCUCUGGAUUCCUCGUCACUCAGCAGGGCAUCUCUGAGUGAAAUGCC | 0.12 |

| Variant | self-cleavage |
| --- | --- |
| CACGUAGGUGGUUUUCCCCUGAUAGUGCUAAGGGGGCCUGGAAGUUUGGACUGGGCAGAGCUCAGCACAGCGUGGCAAAGCGGCUGUGGCUAGACUGCCUCUCUGGAUUCCUCGUCACUCAGCAGGGCAUCUCUGAGAGAAAUGCC | 0 |
| CACGUAGGUGGUUUUCCCCUGAUAGUGCUAAGGGGGCCUGGAAGUUUGGACUGGGCAGAGCUCAACCCAGCGUGGCAAAGUGGCUGUGGCUAGACUGCCUCUCUGGAUUCCUCGUCACUCCGCAGGGCAUCUCUGAGAGAAAUGCC | 0 |
| CACGUAGGUGGUUUUCCCCUGAUAGUGCUAAGGGGGCCUGGAAGUUUGGACUGGGCAGAGCUCAACGCAGCGUGGCAAAGUGGCUGUGGCUAGACUGCCUCUCUGGAUUCCUCGUCACUCAGCAGGGCAUCUCUGAGAGAAGUGCC | 0.19 |
| CACGUAGGUGGUUUUCCCCUGAUAGUGCUAAGGGGGCCUGGAAGUUUGGACUGGGCAGAGCUCAACUCAGCGUGGCAAAGUGGCUGUGCCUAGACUGCCUCUCUGGAUUCCUCGUCACUCAGCAGGGCAUCUCUGAGAGAAAUGCC | 0.03 |
| CACGUAGGUGGUUUUCCCCUGAUAGUGCUAAGGGGGCCUGGAAGUUUGGACUGGGCAGAGCUCAACACGGCGUGGCAAAGUGGCUGUGGCUAGACUGCCUCUCUGGAUUCCUCGUCACUCAGCAGGGCACCUCUGAGAGAAAUGCC | 0.21 |
| CACGUAGGUGGUUUUCCCCUGAUAGUGCUAAGGGGGCCUGGAAGUUUGGACUGGGCAGAGCUCAACACAGCGUGGCGAAGUGGCUGUGGCUAGACUGCCUCUCUGGUUUCCUCGUCACUCAGCAGGGCAUCUCUGAGAGAGAUGCC | 1.09 |
| CACGUAGGUGGUUUUCCCCUGAUAGUGCUAAGGGGGCCUGGAAGUUUGGACUGGGCAGAGCUCAACACAGCGUGGCAGAGUGGCUGUGGCUAGACUGCCUCUCUGGAUUCCUCGUCACUCAGCAGGGCAUCUCUGAGAGAGAUGCC | 0.75 |
| CACGUAGGUGGUUUUCCCCUGAUAGUGCUAAGGGGGCCUGGAAGUUUGGACUGGGCAGAGCUCAACACAGCGUGGCAGAGUGGCUGUGGCUAGACUGCCUCUCUGGAUUCCUCGUCACUCAGCAGGGCACCUCUGAGAGAAAUGCC | 0.86 |
| CACGUAGGUGGUUUUCCCCUGAUAGUGCUAAGGGGGCCUGGAAGUUUGGACUGGGCAGAGCUCAACACAGCGUGGCAAUGUGGCUGUGGCUAGACCGCCUCUCUGGAUUCCUCGUCACUCAGCAGGGCAUCUCUGAGAGAAAUGCC | 0.16 |
| CACGUAGGUGGUUUUCCCCUGAUAGUGCUAAGGGGGCCUGGAAGUUUGGACUGGGCAGAGCUCAACACAGCGUGGCAAAGUGGCUGUGGCUAGGCUGCCUCUCUGGAUUCCUCGUCACUCAGCAGGGCGUCUCUGAGAGAAAUGCC | 0 |
| CAUGUAGGUGGUUUUCCCCUGAUAGUGCUAAGGGGGCCUGGAAGUUUGGACUGGGCAGAGCUCAACACAGCGUGGCAAAGUGGCUGUGGCUAGACUGCCUCUCUGGAUUCCUUGUCACUCAGCAGGGCAUCUCUGGGAGGAGUGCC | 0.85 |
| CAUGUAGGUGGUUUUCCCCUGAUAGAGCUAAGGGGGCCUGGAAGUUUGGACUGGGCAGAGCUCAACACAGCGUGGCAAAGUGGCUGUGGCUAGACUGCCUCUCUGGAUUCCUCGUCACUCAGCAGGGCUUCUCUGAGAGAAGUGCC | 1.06 |
| CACGUAGGUGGUUUUUCCCUGAUAGUGCAAAGGGGGCCUGGAAGUUUGGACUGGGCAGAGCUCAACACAGCGUGGCAAAGUGGCUGUGGCUAGACUGCCUCUCUGGAUUCCUCGUCACUCAGCAGGGCACCUCUGAGAGAAAUGCC | 0.72 |
| CACGUAGGUGGUUUUCCCCUGAUAGUGCUAAGGGGGCCUGGAAGUUUGGACUGGGAAGAGCUCAACACAGCGUGGCAAAGGGGCUGUGGCUAGACUGCCUCUCUGGAUUCCUCGACACUCAGCAGGGCAUCUCUGAGAGAAAUGCC | 0.09 |
| CACGUAGGUGGUUUUCCCCUGAUAGUGCUAAGGGGGCCUGGAAGUUUGGACUGGGCAGAGCUUAACACAGCGUGGCAAAGUGGCUGUGGCUAGACUGCCACUCUGGAUUCCUCGUCACUCAGCAGGGCAUCUCUGAGAGAAAUGCC | 0.1 |
| CACGUAGGUGGUUUUCCCCUGAUAGUGCUAAGGGGGCCUGGAAGUUUGGACUGGGCAGAGCUCAACACAGCGUGGUAUAGUGGCUGUGGCUAGACUGCCUCUCUGGAUUCCUCGUCACUCAGCAGGGCAUCGCUGAGAGAAAUGCC | 1.88 |
| CACGUAGGUGGUUUUCCCCUGAUAGUGCUAAGGGGGCCUGGAAGUUUGGACUGGGCAGAGCUCAACACAGCGUGGCAAAGUGGUUGUGGCUAGACUGCCUCUCUGGAUCCCUCGUCACUCAGCAGGGCAUCUCUGAGAGAAAUGCC | 0.04 |
| CACGUAGGUGGUUUUCCCCUGAUAGUGCUAAGGGGGCCUGGAAGUUUGGACUGGGCAGAGCUCAACACAGCGUGGCAAAGUGGCUGUGGCUAGACUGCCUCUCUGGAUUCCUUGUCACUCAGCAGGGCAUCUCUGAGGGAAAUGCC | 1 |
| CACGUAAGUGGUCUUCCCCUGAUAGUGCUAAGGGGGCCUGGAAGUUAGGACUGGGCAGAGCUCAACACAGCGUGGCAAAGUGGCUGUGGCUAGACUGCCUCUCUGGAUUCCUCGUCACUCGGCAGGGCAUCUCUGAGAGAAAUGCC | 1.27 |
